Results: the supplement of paper PMC3334620
In all, about 33,000 sequences were measured (“E-score (-0.5 to 0.5)”: median about -0.054, highest 2% from about 0.35 on). The list shows a part of the results.

What follows are sequences tested against T1, Stb5 (UniProt P38699) (assay: PBM E-score (8-mer binding enrichment) (E-score (-0.5 to 0.5)); higher = stronger / more preferred TF binding; most listed sequences are background and not binding sites). Details: protein concentration: 200 nM; construct: GST-full length.
T1 sequence: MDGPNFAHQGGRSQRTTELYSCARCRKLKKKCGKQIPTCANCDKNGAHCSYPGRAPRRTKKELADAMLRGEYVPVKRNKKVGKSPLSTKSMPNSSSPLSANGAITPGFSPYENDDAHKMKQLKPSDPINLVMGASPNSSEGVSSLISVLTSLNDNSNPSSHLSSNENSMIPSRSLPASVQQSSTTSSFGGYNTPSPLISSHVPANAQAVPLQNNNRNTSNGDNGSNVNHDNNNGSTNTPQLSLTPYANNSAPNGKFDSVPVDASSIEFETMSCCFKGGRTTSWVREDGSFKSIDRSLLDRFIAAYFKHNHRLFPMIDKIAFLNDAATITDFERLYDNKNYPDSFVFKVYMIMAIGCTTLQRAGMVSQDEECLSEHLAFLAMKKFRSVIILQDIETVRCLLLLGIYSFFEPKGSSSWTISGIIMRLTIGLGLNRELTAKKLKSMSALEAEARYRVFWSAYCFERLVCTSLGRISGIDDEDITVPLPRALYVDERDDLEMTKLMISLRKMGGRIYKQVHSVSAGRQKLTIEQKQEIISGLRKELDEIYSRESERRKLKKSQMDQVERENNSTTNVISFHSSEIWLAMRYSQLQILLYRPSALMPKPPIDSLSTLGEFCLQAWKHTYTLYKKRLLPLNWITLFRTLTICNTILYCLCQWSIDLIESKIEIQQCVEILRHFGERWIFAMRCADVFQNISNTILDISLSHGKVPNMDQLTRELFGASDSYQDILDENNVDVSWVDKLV
Method in brief: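 GST-tagged yeast TFs (full-length or DNA-binding domain) were made by PURExpress in vitro transcription/translation and applied at about 100-200 nM to universal all-10-mer Agilent arrays. The arrays were made double-stranded by primer extension, on fresh or once-stripped slides. Bound protein was detected with fluorescent anti-GST, and scans were normalised with masliner. Each ungapped eight-base word, pooled with its reverse complement, received an E-score (modified Wilcoxon-Mann-Whitney statistic) from the Universal PBM Analysis Suite.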

Row | Sequence | PBM E-score
1 | GTAACTTA | -0.0488
2 | TCGTTAGA | -0.147
3 | ACAACATG | -0.227
4 | ATGCGGAG | 0.184
5 | AGTTCTAT | -0.0685
6 | ACGAGTGA | -0.179
7 | CTGTTGGC | -0.127
8 | CATGCCAG | -0.216
9 | GAAGGTGC | -0.0533
10 | GTTCTCTA | -0.1
11 | CGCTTAGA | -0.0677
12 | GATATCTA | -0.155
13 | CATCGCCA | 0.0921
14 | AAACCCTT | 0.0483
15 | AACTGGCC | -0.143
16 | CCAAGATA | 0.0335
17 | AGCGTTAT | -0.0568
18 | ACGATGTC | -0.172
19 | ACATTTAG | -0.0615
20 | TCGATCGA | -0.148
21 | GCTCGCGA | 0.033
22 | GATAGGTA | -0.0734
23 | AATCCTGG | -0.109
24 | CGCCGTGC | 0.244
25 | CCCACGAA | -0.265

Row | Sequence | PBM E-score
26 | CTTAGGAC | -0.206
27 | AGTGTTTG | -0.255
28 | TACTAGCA | -0.277
29 | TCCAGTAA | -0.256
30 | CGGCTGAC | -0.00958
31 | CTTCTCGC | -0.0222
32 | AGCTACAC | -0.174
33 | AGCGAACG | 0.0119
34 | CGGAGCCG | 0.0804
35 | CGGTTGCA | 0.0584
36 | ACGAATCG | 0.0406
37 | GATACAGA | -0.0464
38 | ATCATGAG | -0.0314
39 | GATACCTA | -0.145
40 | ATTTCGCC | 0.12
41 | CGTTTCTA | -0.0418
42 | GCTTCTCC | -0.0574
43 | TTCGCCAA | -0.127
44 | CTGGTACC | 0.159
45 | ATGCGGAC | 0.245
46 | CGTCAATA | 0.113
47 | ACAGTGAC | -0.117
48 | CATCGGCG | 0.268
49 | AGACTCGA | -0.192
50 | ATTTGGCG | -0.108

Row | Sequence | PBM E-score
51 | GGTACCAC | 0.157
52 | ATAGTACC | 0.359
53 | GCATAAGA | -0.00893
54 | CTCGGCTA | -0.056
55 | CTCTGGAC | -0.058
56 | AATACCAC | -0.0051
57 | ATTGCCAG | -0.202
58 | AGCACTGC | -0.218
59 | AAGTCAGC | -0.101
60 | AATTTCGG | 0.14
61 | ACTGTCCT | -0.215
62 | AAATTTTG | -0.0242
63 | CTAATCCA | -0.106
64 | GAACTATC | 0.0192
65 | CAGAACCG | 0.0722
66 | TAGCCCAA | -0.142
67 | GTGCACAC | -0.233
68 | CAACAAAC | 0.0347
69 | ACACTCTG | -0.123
70 | ATAGCGCG | 0.0127
71 | ACTCTGCG | -0.139
72 | CCGCCACC | 0.28
73 | AGTTTTAA | 0.159
74 | AGGCTACG | -0.137
75 | GCGCGAAA | 0.0664

Row | Sequence | PBM E-score
76 | ACCGAACG | 0.308
77 | CCTAAACG | 0.0805
78 | GCTCCCTA | -0.317
79 | GCTCGGAA | -0.0356
80 | GTAAAAAC | 0.0659
81 | AGCTGTGG | -0.0912
82 | CGCTGTTC | 0.0181
83 | CTGTTTGA | -0.104
84 | GACTTCGC | 0.0143
85 | CCCTAGAC | -0.138
86 | AGTCCCTG | -0.203
87 | AATGTAGG | -0.114
88 | CAGAACAC | -0.0868
89 | TAACTCTA | -0.0643
90 | GCGCTAGA | 0.112
91 | TCGCTAGA | -0.243
92 | AAGGTTCA | -0.164
93 | TGGCTTAA | -0.044
94 | AGCACAGC | -0.0764
95 | AAGAGTAT | -0.239
96 | TTGGCCAA | -0.107
97 | AGGCCGAC | 0.406
98 | CAAATCCC | 0.194
99 | AACAGGCT | -0.224
100 | CACAAGAC | -0.161

Row | Sequence | PBM E-score
101 | CATATCCA | -0.193
102 | CTGTCCGA | 0.201
103 | ATGGATCA | -0.0964
104 | CCTGTGGC | -0.0876
105 | AAGCCTGG | -0.0397
106 | CTAGTGAA | -0.0467
107 | ATCCCCAC | 0.0244
108 | ATGTCTTC | -0.142
109 | CCAGGGAC | -0.161
110 | ACCCAAAC | -0.0514
111 | GCCATTCA | 0.153
112 | AGCTGCGA | -0.117
113 | GCTGATGA | -0.169
114 | ATTCTTTG | -0.174
115 | ATTAAGGA | 0.0825
116 | CACGAGTC | -0.212
117 | CTCTAATC | -0.0463
118 | GACCGGAC | 0.387
119 | CAGCGGAG | 0.352
120 | ACCTTCGC | 0.136
121 | CAACAGCA | 0.00701
122 | AATCATAG | -0.154
123 | ATATTGAA | -0.0371
124 | CAAACGAG | -0.0052
125 | AGCGCCCT | -0.00237

Row | Sequence | PBM E-score
126 | AAGAGGCC | 0.195
127 | GTTCGTGA | -0.0803
128 | AGTACGTA | -0.0603
129 | CAAAGTGG | -0.254
130 | GTGACCGA | 0.197
131 | GACCGACC | 0.308
132 | GGTAGACC | -0.1
133 | ACGAAGCG | -0.0171
134 | CTTGCGCC | 0.0443
135 | CAGGTCCA | -0.0613
136 | CCGACTAC | 0.292
137 | ATCGACGA | -0.0527
138 | CACCACTG | -0.274
139 | TCTATTCA | -0.172
140 | AGCGGTCA | 0.29
141 | GGCTGACA | -0.00911
142 | CATTCGGC | 0.194
143 | CGTACATA | 0.0561
144 | ACGAGAGG | -0.282
145 | AATACAGA | -0.0777
146 | TACTTCTA | -0.0933
147 | GCGAATCC | -0.204
148 | ACCCGACT | 0.219
149 | AAGCCGAG | 0.0575
150 | GACGCGAC | 0.0896

Row | Sequence | PBM E-score
151 | GTTTTGTA | -0.1
152 | CTCTTGAC | -0.182
153 | CTCCCTTC | -0.271
154 | AACGGGTC | 0.182
155 | AGCAAGAT | -0.0935
156 | AATTACCG | 0.395
157 | AACATTCG | -0.183
158 | GTTCAGAA | -0.065
159 | TACCTGAA | -0.0506
160 | ACAGACCC | -0.00703
161 | AGTGGATG | -0.19
162 | AACAAGAA | -0.165
163 | AAAGCCCG | 0.457
164 | CTGCGCGC | 0.0757
165 | GTATTACA | 0.167
166 | AACTATCA | -0.114
167 | CGGTGCCA | 0.414
168 | ACGGCCTA | 0.176
169 | AAAGGTGG | -0.216
170 | TCCGCGCA | 0.2
171 | AGATGGCA | -0.0856
172 | ACTCAGAT | -0.0785
